Some of the results follow. The full chains were built here from the parent and the listed change. Inactive controls read about 0.05.
B1: TEV protease; numbered along this chain (parent)
chain: MGESLFKGPRDYNPISSSICHLTNESDGHTTSLYGIGFGPFIITNKHLFRRNNGTLVVQSLHGVFKVKDTTTLQQHLVDGRDMIIIRMPKDFPPFPQKLKFREPQREERICLVTTNFQTKSMSSMVSDTSCTFPSGDGIFWKHWIQTKDGQCGSPLVSTRDGFIVGIHSASNFTNTNNYFTSVPKNFMELLTNQEAQQWVSGWRLNADSVLWGGHKVFMVKPEEPFQPVKEATQL

Variants of: B1
Experiment: raw area under fraction-flipped curve 0-4 h after induction (AUC4h, not background-subtracted), DNA-recorder readout of cleavage of the substrate (dimensionless); higher = more cleavage of the substrate by the protease variant
Conditions: temperature: 34 °C; time window: 0-4 h after rhamnose induction
Protocol: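 In vivo DNA recorder in E. coli TOP10(DE3) ΔrhaA at 34 °C. Each TEVp single-site mutant (parent TEVp 0) is paired with a single-site variant of the 7-mer TEVs (canonical ENLYFQ|S). The substrate sits between flexible linkers in a Bxb1-sfGFP-TEVs-SsrA fusion, so cleavage stabilises Bxb1 and speeds flipping of a recombination array, read by NGS. The value is the raw area under the fraction-flipped curve over 0-4 h after rhamnose induction (AUC4h), with ≥20 reads per time point. It is not background-subtracted; inactive controls average about 0.047.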
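Further: Bxb1 expression induced with 0.2% (w/v) L-rhamnose at OD600 near 0.5, cultures sampled hourly, flipped fraction per protease–substrate barcode pair counted by paired-end Illumina sequencing.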

| Variant | area with substrate ENLYFQC | area with substrate ENLYFQD | area with substrate ENLYFQG | area with substrate ENLYFQK | area with substrate ENLYFQL | area with substrate ENLYFQM | area with substrate ENLYFQN | area with substrate ENLYFQR | area with substrate ENLYFQS | area with substrate ENLYFQT | area with substrate ENLYFQV | area with substrate ENLYFQW | area with substrate ENLYFQY | area with substrate ENLYFQE | area with substrate ENLYFQH | area with substrate ENLYFQA | area with substrate ENLYFQF | area with substrate ENLYFQI | area with substrate ENLYFQQ | area with substrate ENLYFQP |
| --- | --- | --- | --- | --- | --- | --- | --- | --- | --- | --- | --- | --- | --- | --- | --- | --- | --- | --- | --- | --- |
| MGESLFKGPRDTNPISSSICHLTNESDGHTTSLYGIGFGPFIITNKHLFRRNNGTLVVQSLHGVFKVKDTTTLQQHLVDGRDMIIIRMPKDFPPFPQKLKFREPQREERICLVTTNFQTKSMSSMVSDTSCTFPSGDGIFWKHWIQTKDGQCGSPLVSTRDGFIVGIHSASNFTNTNNYFTSVPKNFMELLTNQEAQQWVSGWRLNADSVLWGGHKVFMVKPEEPFQPVKEATQL [Y12T] | 0.124 | 0.0754 | 0.0828 | 0.0435 | 0.0573 | 0.0908 | 0.0776 | 0.0654 | 0.106 | 0.0558 | 0.0559 | 0.0618 | 0.0762 | – | – | – | – | – | – | – |
| MGESLFKGPRDYNPRSSSICHLTNESDGHTTSLYGIGFGPFIITNKHLFRRNNGTLVVQSLHGVFKVKDTTTLQQHLVDGRDMIIIRMPKDFPPFPQKLKFREPQREERICLVTTNFQTKSMSSMVSDTSCTFPSGDGIFWKHWIQTKDGQCGSPLVSTRDGFIVGIHSASNFTNTNNYFTSVPKNFMELLTNQEAQQWVSGWRLNADSVLWGGHKVFMVKPEEPFQPVKEATQL [I15R] | 0.0609 | – | 0.0474 | – | 0.0442 | – | 0.052 | 0.0425 | 0.0638 | 0.0426 | – | – | 0.0337 | 0.0848 | 0.0507 | – | – | – | – | – |
| MGESLFKGPRDYNPISSSICHLTNESDGHTTSLYGIGFGPFIITNKHLFRRNNGTLVVQSLHGVFKVKDTTTLQQHLVDGRDMIIIRMPKDFPPFPQKLKFREPQREERICLVTTNFQTKSMSSMVSDTSCTFPSGDGIFWKHWIQTKDGQCGSPLVSTRDGFIVGIHSASNFTNTNNYFTSVPKNFMELLTNQEAQQWVSGWRLNADSVLWGGHKVFMVKPEEPFQPVKEATEL [Q234E] | 0.135 | 0.072 | – | 0.0696 | 0.0548 | – | – | 0.0544 | 0.105 | – | – | 0.0547 | 0.0869 | – | – | 0.0935 | – | – | – | – |
| MGESLFKGPRDYNPISSSICHLTNESDGHTTSLYGIGFGPFIITNKHLFRRNNGTLVVQSLHGVFKVKDTTTLQQHLVDGRDMIIIRMPKDFPPFPQKLKFREPQREERICLVTTNFQTKSMSSMVSDTSCTFPSGDGIFWKHWIQTKDGQCGSPLVSTRDGFIVGIHSASNFTNTNNYFTSVPKNFMELLTNQEAQQWVSGWRLNADSVLWGGHKVFMVKPEEPFQPVKEATPL [Q234P] | 0.0928 | 0.0731 | 0.0969 | – | 0.0163 | 0.0816 | 0.0948 | 0.0568 | 0.0964 | 0.0759 | 0.0715 | 0.0604 | 0.0733 | – | – | 0.0863 | 0.0662 | 0.0444 | – | – |
| MGESLFKGPADYNPISSSICHLTNESDGHTTSLYGIGFGPFIITNKHLFRRNNGTLVVQSLHGVFKVKDTTTLQQHLVDGRDMIIIRMPKDFPPFPQKLKFREPQREERICLVTTNFQTKSMSSMVSDTSCTFPSGDGIFWKHWIQTKDGQCGSPLVSTRDGFIVGIHSASNFTNTNNYFTSVPKNFMELLTNQEAQQWVSGWRLNADSVLWGGHKVFMVKPEEPFQPVKEATQL [R10A] | 0.0907 | – | 0.103 | – | 0.0466 | – | – | 0.0622 | 0.0957 | 0.0586 | 0.0761 | 0.0661 | – | – | – | – | – | 0.0365 | – | – |
| MGESLFKGPRDYNPISSSICHLTNESDGHTTSLYGIGFGPFIITNKHLFRRNNGTLVVQSLHGVFKVKDTTTLQQHLVDGRDMIIIRMPKDFPPFPQKLKFREPQREERICLVTTNFQTKSMSSMVSDTSCTFPSGDGIFWKHWIQTKDGQCGSPLVSTRDGFIVGIHSASNFTNTNNYFTSVPKNFMELLTNQEAQQWVSGWRLNADSVLWGGHKVFMVKPEEPFQPVKEAAQL [T233A] | – | 0.0647 | – | – | 0.0442 | 0.0831 | – | – | 0.101 | – | – | – | – | – | 0.0872 | 0.0929 | – | 0.0683 | 0.0833 | – |
| MGESLFKGPRDYNPISSSICHLTNESDGHTTSLYGIGFGPFIITNKHLFRRNNGTLVVQSLHGVFKVKDTTTLQQHLVDGRDMIIIRMPKDFPPFPQKLKFREPQREERICLVTTNFQTKSMSSMVSDTSCTFPSGDGIFWKHWIQTKDGQCGSPLVSTRDGFIVGIHSASNFTNTNNYFTSVPKNFMELLTNQEAQQWVSGWRLNADSVLWGGHKVFMVKPEEPFQPVKEATQW [L235W] | 0.142 | – | 0.111 | – | – | – | – | 0.0622 | 0.0963 | 0.0579 | – | – | – | – | – | 0.121 | – | – | 0.0544 | – |
| MGESLFKGPRDYNPISSSIIHLTNESDGHTTSLYGIGFGPFIITNKHLFRRNNGTLVVQSLHGVFKVKDTTTLQQHLVDGRDMIIIRMPKDFPPFPQKLKFREPQREERICLVTTNFQTKSMSSMVSDTSCTFPSGDGIFWKHWIQTKDGQCGSPLVSTRDGFIVGIHSASNFTNTNNYFTSVPKNFMELLTNQEAQQWVSGWRLNADSVLWGGHKVFMVKPEEPFQPVKEATQL [C20I] | 0.147 | – | – | 0.0503 | 0.0591 | 0.0844 | – | 0.0512 | 0.0959 | 0.061 | 0.0421 | 0.0825 | 0.067 | 0.0515 | 0.0701 | – | – | 0.0535 | 0.0806 | – |
| MGESLFKGPRDYNPISSSICHLTNESDGHTYSLYGIGFGPFIITNKHLFRRNNGTLVVQSLHGVFKVKDTTTLQQHLVDGRDMIIIRMPKDFPPFPQKLKFREPQREERICLVTTNFQTKSMSSMVSDTSCTFPSGDGIFWKHWIQTKDGQCGSPLVSTRDGFIVGIHSASNFTNTNNYFTSVPKNFMELLTNQEAQQWVSGWRLNADSVLWGGHKVFMVKPEEPFQPVKEATQL [T31Y] | 0.154 | – | – | – | 0.0897 | 0.117 | 0.0447 | – | 0.11 | 0.0649 | 0.12 | 0.107 | – | – | – | – | – | 0.0823 | 0.071 | 0.0589 |
